Data reported in PubChem BioAssay AID624417 (National Center for Advancing Translational Sciences (NCATS), 2012).
“And” between values parts separate entries of the source, which are not always exact repeats. Equal entries are not always repeated. Among all 410,000 compounds or so, about 6,400 (1.6%) were called active. Inconclusive results, whose numbers are uncertain, are shown with a selection of clear calls. The call rests on the fitted dose curve; in most records, active means well fitted inhibition curve with a large enough effect; inconclusive means small, poorly fitted or top-dose-only effect; inactive means no such curve, though single readings can be large or run the other way. Potencies beside an inconclusive call are fits to weak or partial responses and may not hold up.

Target: Glucagon-like peptide 1 receptor (Homo sapiens) (UniProt P43220)
Experiment: qHTS of GLP-1 Receptor Inverse Agonists (Inhibition Mode); further: nearly all actives have a fitted effect of over 55% in size
Settings: HEK293 GLP-1R CRE-luciferase, luminescence, 24 h, GLP-1R form is constitutively active; series mostly up to 38.3 µM
In short: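 Assay principle: reduced luminescence from a cAMP-responsive reporter in HEK293 cells co-expressing a constitutively active GLP-1R. Conditions: 24 hr compound incubation, 37 deg C, 5% CO2.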
Potency means the concentration at half of the fitted maximal effect; tags describe the fitted curve by direction and shape.

UniProt P43220, sequence (P43220 whole entry, looked up): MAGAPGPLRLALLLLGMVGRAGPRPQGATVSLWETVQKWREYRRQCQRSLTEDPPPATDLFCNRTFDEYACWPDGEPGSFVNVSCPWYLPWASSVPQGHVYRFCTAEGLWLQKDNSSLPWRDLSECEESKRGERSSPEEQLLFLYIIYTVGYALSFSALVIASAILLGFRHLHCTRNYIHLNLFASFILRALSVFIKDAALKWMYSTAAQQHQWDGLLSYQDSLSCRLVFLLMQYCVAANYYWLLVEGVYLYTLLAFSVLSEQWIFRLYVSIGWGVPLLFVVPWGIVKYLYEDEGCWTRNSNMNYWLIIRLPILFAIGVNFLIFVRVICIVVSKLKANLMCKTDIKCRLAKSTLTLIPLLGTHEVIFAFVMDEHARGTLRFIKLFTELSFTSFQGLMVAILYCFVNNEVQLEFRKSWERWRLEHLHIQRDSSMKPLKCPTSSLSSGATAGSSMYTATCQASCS

Compound | Potency
O=C(c1ccc(Cl)cc1)c1cc([N+](=O)[O-])ccc1N1CCOCC1 | inconclusive: 1.78 µM [inhibitor, full curve, poor fit]
CCOC(=O)c1cnc(-c2ccccc2)nc1-c1ccccc1 | inconclusive: 28.2 µM [inhibitor, single point]
Cc1ccc(S(=O)(=O)N/N=C/c2c(F)cccc2Cl)cc1 | inactive
CC(=O)CCc1oc2ccc(C)cc2c1-c1ccccc1 | inconclusive: 10 µM [inhibitor, single point]
CC(OC(=O)CCN=C1NS(=O)(=O)c2ccccc21)C(=O)Nc1ccc(F)c(F)c1F (configuration not stated) | inactive
O=C(CSc1c2c(nc3ccc(Cl)cc13)CCCC2)NCc1ccccc1Cl | inconclusive: 12.6 µM [inhibitor, single point]
COc1ccccc1OCC(=O)N/N=C/c1cccc2cccnc12 | inconclusive: 22.4 µM [inhibitor, single point]
COc1ccc(CCNC(=O)Nc2cccc([N+](=O)[O-])c2)cc1 | inconclusive: 10 µM [inhibitor, partial curve, poor fit]
Brc1ccc(-c2ccc(/C=N/Nc3nc(N4CCOCC4)nc(N4CCOCC4)n3)o2)cc1 | inactive
CC(CCc1ccccc1)NC(=O)CN1CCSc2ccccc21 (configuration not stated) | inconclusive: 10 µM [inhibitor, partial curve, poor fit]
N=c1n(CCO)c2ccccc2n1Cc1ccccc1F | inactive
COc1ccc2nc(C)c3c(c2c1)OC(C(C)(Cl)Br)C3 (configuration not stated) | inconclusive: 14.1 µM [inhibitor, single point]
O=C(c1ccc(Cl)cc1)c1coc2ccc(O)cc12 | inconclusive: 28.2 µM [inhibitor, single point]
CCOC(=O)c1c(CSc2ccccc2)n(C)c2cc(Br)c(OC)c(O)c12 | inconclusive: 11.2 µM [inhibitor, partial curve]
CCC(NC(=O)Nc1cc(Cl)ccc1OC)c1c(-n2cccc2)sc2c1CCN(C)C2 (configuration not stated) | inconclusive: 28.2 µM [inhibitor, single point]
Cc1ccc(C(=O)NNC(=O)C2CCN(c3ncccn3)CC2)cc1 | inactive
CCOc1ccc2nc(N3C(=O)C(O)=C(C(=O)c4ccco4)C3c3ccco3)sc2c1 (configuration not stated) | inactive
COc1ccccc1COCC(O)CNCCc1ccc(C(F)(F)F)cc1 (configuration not stated) | inconclusive: 10 µM [inhibitor, partial curve, poor fit]
CC(c1ccccc1)n1cc(C(=O)NCCCn2ccnc2)nn1 (configuration not stated) | inconclusive: 5.62 µM [inhibitor, full curve, poor fit]
COc1ccccc1N1CCN(CC(O)COc2ccc3c(c2)CCC3)CC1 (configuration not stated) | inconclusive: 7.94 µM [inhibitor, partial curve, poor fit]
Cc1ccc(CN(CC(=O)N/N=C/c2ccco2)S(=O)(=O)c2ccc(C)cc2)cc1 | inconclusive: 22.4 µM [inhibitor, partial curve, poor fit]
Cc1ccc(S(=O)(=O)c2c(C)cc(C)nc2Oc2cccc(C)c2C)cc1 | inconclusive: 10 µM [inhibitor, single point]
CCOc1ccc(OCc2cccc(C(=O)N3CCOCC3)c2)cc1 | inconclusive: 1.12 µM [inhibitor, full curve, poor fit]

Compound | Potency
O=C1C2CC=CCC2C(=O)N1c1ccc(NCCc2ccccc2)c([N+](=O)[O-])c1 (configuration not stated) | inconclusive: 2.82 µM [inhibitor, full curve, poor fit]
COc1ccc(OCCn2nnc3sc4c(c3c2=O)CCC(C(C)(C)C)C4)cc1 (configuration not stated) | inactive
O=C(/C=C/c1ccco1)Oc1ccc(C(=S)N2CCOCC2)cc1 | inactive
O=C(CCN1CCc2ccccc2C1)Nc1ccc(F)c(F)c1 | inconclusive: 31.6 µM [inhibitor, single point]
Cc1ccccc1NC(=O)c1cccc(S(=O)(=O)N2CCCCC2)c1 | inconclusive: 6.31 µM [inhibitor, partial curve]
O=C(O)c1ccc(N/N=C/c2cccc3nccnc23)cc1 | inactive
Cc1nc(N2CCN(S(=O)(=O)c3ccccc3C#N)CC2)c2c(-c3cccs3)csc2n1 | inconclusive: 28.2 µM [inhibitor, single point]
CC(c1ccccc1C(=O)O)c1cc(F)cc2ccccc12 (configuration not stated) | inconclusive: 4.47 µM [inhibitor, single point]
COc1ccc(C(C(O)C(=O)c2c[nH]c3ccccc23)N2CCN(c3ccccc3)CC2)cc1 (configuration not stated) | inconclusive: 10 µM [inhibitor, partial curve, poor fit]
CCOC(=O)c1c(-c2ccc(C)s2)csc1N | inconclusive: 15.8 µM [inhibitor, single point]
S=C(c1ccc2c(c1)OCO2)N1CCCCC1 | inconclusive: 1.78 µM [inhibitor, full curve]
Cc1cc(N(C)Cc2ccccc2)n2nc(-c3ccc(C(C)(C)C)cc3)nc2n1 | inactive
O=C(c1ccccc1CCc1ccccc1)N1CCN(c2ccccn2)CC1 | inconclusive: 11.2 µM [inhibitor, partial curve, poor fit]
C/C(=N\NC(=S)NC(C)C)c1ccc(Cl)c([N+](=O)[O-])c1 | inconclusive: 11.2 µM [inhibitor, single point]
CCN(CC)CCCNC(=S)N1CCN(c2nc3ccccc3n2CC)CC1 | inconclusive: 10 µM [inhibitor, partial curve, poor fit]
COc1ccc(CC(=O)N/N=C(\C)c2cccnc2)cc1 | inactive
Cc1ccc(S(=O)(=O)Nc2cccc(-c3ccc(N4CCCCCC4)nn3)c2)cc1C | inconclusive: 7.94 µM [inhibitor, partial curve, poor fit]
CCC(CC)C(=O)Nc1c(C(=O)N2CCN(c3ccccc3)CC2)oc2ccccc12 | inconclusive: 20 µM [inhibitor, single point] and inconclusive: 10 µM [inhibitor, partial curve, poor fit]
Nn1c(-c2cccc(Br)c2)n[nH]c1=S | inactive
Cc1ccc(-c2nnc(N3CCCCC3)c3ccccc23)cc1 | inconclusive: 10 µM [inhibitor, single point]
CC(=O)C(CC(=O)N1CCCc2ccccc21)C(=O)Nc1ccc(F)cc1 (configuration not stated) | inconclusive: 2.51 µM [inhibitor, full curve]
CCCCCc1cc(=O)oc2c(C(CCN3CCCC(C)C3)c3cc(OC)c(OC)c(OC)c3)c(OC)cc(OC)c12 (configuration not stated) | inconclusive: 28.2 µM [inhibitor, single point]
Cc1oc(-c2ccccc2F)nc1CS(=O)(=O)CC(=O)NCc1ccccc1Cl | inconclusive: 28.2 µM [inhibitor, single point]

Compound | Potency
O=C(CC1=NCCNC(c2ccccc2)C1)c1ccccc1O (configuration not stated) | inconclusive: 28.2 µM [inhibitor, single point]
Cc1ccc2c(c1)c1c(n2CC(O)Cn2ccnc2C)C(=O)CCC1 (configuration not stated) | inconclusive: 14.1 µM [inhibitor, single point]
CCOC(=O)Cn1c(COc2ccccc2OC)[n+](C)c2ccccc21 | inactive
O=C(c1ccccc1)c1cccn1CC(=O)N1CCN(c2ccccc2)CC1 | inconclusive: 5.01 µM [inhibitor, partial curve]
Cc1nc2scc(-c3ccc(C(C)C)cc3)c2c(=O)n1N | inconclusive: 11.2 µM [inhibitor, single point]
Cc1coc2cc3oc(=O)c(CC(=O)N4CCCCC4)c(C)c3cc12 | inactive
Cc1ccc(Nc2ncc3c(n2)CC(C)CC3=O)c(C)c1 (configuration not stated) | inconclusive: 8.91 µM [inhibitor, single point]
O=c1c2ccccc2[nH]c(=S)n1-c1cccc(S(=O)(=O)N2CCCC2)c1 | inactive
CN(C)CCNc1ncnc2oc(-c3ccccc3)c(-c3ccccc3)c12 | inconclusive: 11.2 µM [inhibitor, partial curve]
CC(C)(C)c1ccc(S(=O)(=O)NC(=O)C2(C)CCN2C(=O)C2(c3ccc(Cl)cc3)CC2)cc1 (configuration not stated) | inconclusive: 12.6 µM [inhibitor, single point]
CCCC(C)c1nnc(NC(=O)C2CC(=O)N(c3ccc(OCC)cc3)C2)s1 (configuration not stated) | inconclusive: 28.2 µM [inhibitor, single point]
CCC(CC)C(=O)Nc1nc(-c2ccc3c(c2)CCN3C(=O)C2CC2)c(C)s1 | inconclusive: 7.08 µM [inhibitor, partial curve, poor fit]
Cc1ccc(NC(=O)COC(=O)CNC(=O)c2cccs2)cc1S(=O)(=O)N1CCOCC1 | inactive
CSc1nnc(C)c(/C=C/NOCc2cccc(F)c2)n1 | inactive
CCC1CCc2c(sc(NC(=O)C3CC=CCC3C(=O)O)c2C#N)C1 (configuration not stated) | inactive
CCOc1ccccc1CN1CCN(S(=O)(=O)CC)CC1 | inactive
CSC[C@H]1CN(c2ccc(Br)cc2)C(=O)[C@@H]1CC(=O)Nc1ccccc1 | inconclusive: 28.2 µM [inhibitor, single point]
COc1ccc(CN2C(=O)C(C)Nc3ncnc(N4CCc5ccccc5C4)c32)cc1 (configuration not stated) | inconclusive: 1.12 µM [inhibitor, full curve, poor fit]
NNC(=O)CCN1CCN(C(c2ccccc2)c2ccccc2)CC1 | inconclusive: 10 µM [inhibitor, partial curve, poor fit]
CCc1ccc2[nH]c(=O)c(CN(CC3CCCO3)C(=S)NCc3ccco3)cc2c1 (configuration not stated) | inconclusive: 22.4 µM [inhibitor, single point]
O=C(NC(=S)N1CCCCC1)c1csc([N+](=O)[O-])c1 | inactive
